# Reference: the supplement of paper PMC12632987
# The full ranking holds about 4,500 sequences; the median of “median log2 fold change of GCK-ALFA target abundance (FLAG IP / Myc IP barcode read proportion)” is about 0.078, and the lowest 2% start at about -0.6. Some of the results follow.
# B1: GBRAP_83_6932 (protein)
# chain: KEEITVAANKDNIKEMFDIAIDLSKEEGYEVNIDVITTKEDIETLIEAFEKLAKAGVNTELLIALEGATEEEAKELKEKLEEIAKKYGVNVKVEVIVVEP
# B2: GBRAP_160_4423 (protein)
# chain: GELVERVREILEEGLELVVELVEEGERDAALAAARVTAGEVLLEVDEDERVSEEAEEEVDRILDELIAELEANADATPEEVRAMLEEARERILAVLEKHL
# B3: GBRAP_95_7066 (protein)
# chain: EEDREIAEDLIDTAEDLVEIGLYEQAARAAKAAVEVLKEIGETGELALRAAEVLVKVAEATGDEEAAEAAKEVLERIREAGGDEERIKELEKRLEEAKKK
# B4: GBRAP_78_6585 (protein)
# chain: ELEELFDKIFAELDAAHALARQLPPDVRNEVLSELTEAASSLLDAEEDGNLEAELQEAIAHLNKALAIARAADHPVAPALAAELEAAKALAEEALKLVKE
# B5: GBRAP_74_6535 (protein)
# chain: SEELIEKIVAAIKAGKIEEAVKLLREAIENENEEDKVKALLAAAKTVVENADKLSDEDIIKLADALVELRDSVDDELLTDETWKAFAAVLALALAAEQKK
# B6: GBRAP_184_5139 (protein)
# chain: KVLREAIEAKTVEEAIKKAKEAFEKAKAEGAKLELFVFADGLSVEEIEKLMKEIKKLIEESGLTDAKVTLVVEADEEEADKIIEIADKYGIRVVVALEEE
# B7: GBRAP_57_6472 (protein)
# chain: SERLKKVEEHAEAALALIEAGAPVEEVLEEVRKMLEELSEETLRDILLIADPEAEYDISKEEAIERLLALVRAYLEAGDLEAVRRLVELIEGQAEMEATE
# B8: GBRAP_78_6740 (protein)
# chain: ELEELLDKAREHIDKARELIKQLDPETQNELLGLLTDALSDLYLFETEGPNLEYLERAIEHLEKALELLKQIDTPVAKKAAEELEKAIEYLKKAKELLKE
# B9: GBRAP_128_3498 (protein)
# chain: SMEEAVARTRELMEEIARASPEETRELTRELVALIASVDRETAEAMAEAVEERLPELSAEALDVVADTLRELRPTVDPYTANLLAGIQVEALNRLEELEE
# B10: GBRAP_83_6910 (protein)
# chain: KEKVAVATTGDHIEEAVDAVIDLTKEEGYEVDLEIITTKEEREKVLEAVERLAKEGIETKVTVLLFGATEEEAEELLKELKEIAKKHGVNIEIEVILIEE
# B11: GBRAP_184_5362 (protein)
# chain: EVENRSVDVETKEEAEEKLEKERERIRKEKKPTNLYVFLKNASLETVETAAKLLAELKEEGLIKRGIIVLDDEVSEEELDKRVAIADKYGVQLVAALKDE
# B12: GBRAP_160_4704 (protein)
# chain: SATAEKLKKYVEEEFKKAKELIKGETKEQKAIILEGTIGEILMELAEDENATDELEEEVDKIGDELVEKILADENITEEELKKLIEEAVEKMKEAIDKHL
# B13: GBRAP_96_7104 (protein)
# chain: MLEEAEELVKELIEALDKDEEKAKELAKKLLEFPVEVVTEALVKVVKDPEDARKLAEVLLSLKDEKAEEVLLEAAEKSDSEISKAIIEAMEEFEKKEEAE
# B14: GBRAP_160_4389 (protein)
# chain: SSGFKKLKKSVKDILEEAKKLIEGESKEERKVIVRVALGEIRMEVFSNDEVSDEGEEKIDKILDEGEKKIEEAIEKGLEEVKKKIEELEKKLLEEIEKLE
# B15: GBRAP_166_4958 (protein)
# chain: SKEDVIKETKKKIEELAEKMKDANPEEQLELQIEIAEAIQEAKEKGLSKEEILELIELALKLVKEAGGNVEQFLGVISMFVDLDEEELDKIEEIAKKVKE
# B16: GBRAP_14_3812 (protein)
# chain: KEELIKEIKKILEELKKELVEELGLDPEKVKALVEEAEEKIEEAILTEEDPEEKVEEIFDELKAKVAALAAALGADVAAAARALVTDAEHEVLELIEKKK
# B17: GBRAP_78_6711 (protein)
# chain: EIEELIDKAIELLNKAARLALKLPEERSNEILDLLVDAITLLMETLEEGMEQEEKIKKLEEAIALVEKALKLLKPEDKELRELLEKAKELLEKALKLAKK
# B18: GBRAP_125_3023 (protein)
# chain: SEEELVENLKLIARALGFSEGDVEELGENARKYGIKGALIALFLAEGLEEEAELAEKLTEEEVKEVVKEVAEYLKKHPDATPEEVKEKIKEVLEKAVKKS
# B19: GBRAP_166_4900 (protein)
# chain: MVEEAIKRIEELAADTIARIADLSDEELLERFVEMAEIAEEAGPTPELRAALAAAFARVLAAAEAAGKDPETVRNLILAAVGDNEKLLDAVEAALDAAAA
# B20: GBRAP_160_4124 (protein)
# chain: MEKEKKTLLDNAEDVEETIEIMEDLSPEEARTLAIVTLGQILLDNDELDDKFPEIDKLSEEAIEELRETAKTDPEKLKEVSLEKLKEIKELLKKKAKELE
# B21: GBRAP_39_5640 (protein)
# chain: SEEEEAEETYSYLEALGAKLLVDEKISLDELLARTLAYARARFADDPELLALIDELEALAAAGDEMDKLALVGALSLAERGESRETIREHLELLIRYLKS
# B22: GBRAP_160_4032 (protein)
# chain: KEKIEKLKEYSKELFAEAKEMIEGLSAEQRANLFDVTMGEIIMEAVELGIDNEDLEDHIDELGDKGRATILANPDLTLAEVKALLDAAEKEVLKKIEEIK
# B23: GBRAP_160_4208 (protein)
# chain: SELIEKIIEELEEATEEVIAALPEVSVEEAANLADVEYGSVLMEAVEAGLENDEILDTIAEAGDRVVAALRALADASDEERRARLRAITEEAKKKIKEIA
# B24: GBRAP_96_7085 (protein)
# chain: VSPELLALVRAVREAARTDRERLLALLRELSEYSEDEIEAAFKEVEFTPEEVAAIAEAARELGEEKAEKLLLALAEAAVEKGDTEQVRVVIEAAERLERE
# B25: GBRAP_128_3418 (protein)
# chain: SMEEKVARVKELLEKMLTASPEEQKKIADEIMELMKEADLETAEAMAEVVLKMLPKFTAEQLDILADAARKHLSEFTPEKQNLVAEVEVEALNEAEELEE
# B26: GBRAP_160_4436 (protein)
# chain: SEKVEEAKKKIKEIVEEAAKMMEGESAEQRIVVVRVAEGEILLELDELGLLTDEIDKVIEEEFKKIIDYIKANPNISQEELKKLLEEAEKKIIEELDKKF
# B27: GBRAP_52_6046 (protein)
# chain: MEEEARKLAKELLELVLEGKEEEARKLAREIAETKNEEEILKIAEELAKLVLEGDKETAEAGIKAAEIMAEELEKAGRDEGLADLILATVYGAAYKRLQK
# B28: GBRAP_128_3570 (protein)
# chain: SSEETLAKAEELIQKIIESDLETARKYAEELVALMASSDPETREKITEMVLKALPKLSVEKLEILADVFREKRPSLDPFTANLLADVQVEALNEAEEKEE
# B29: GBRAP_186_5379 (protein)
# chain: EEELEEREDEIIDELEAEGYTVIVTYLEGLSLEETKEAMKRDAEAVAALSKETGKKWALVVVVITKKEDVEEIEEFAKELNEEYLKKTGVVVRAAVGSSD
# Molecular target: GABARAP, O95166
# Sequence (O95166 whole entry, the tested form may be a part): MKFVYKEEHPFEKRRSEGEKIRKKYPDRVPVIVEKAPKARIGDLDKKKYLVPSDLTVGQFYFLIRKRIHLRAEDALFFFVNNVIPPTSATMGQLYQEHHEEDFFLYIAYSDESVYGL
# Test: median log2 fold change of GCK-ALFA target abundance (FLAG IP / Myc IP barcode read proportion) (log2 ratio); each designed protein is fused to an ALFA-tag nanobody in HEK293 cells to bring the named protein to FLAG-tagged glucokinase (GCK); Myc marks an untargeted standard; higher = target protein stabilised (more abundant)
# Settings: target protein: 3xFLAG-MCP-GCK-ALFA reporter; HEK293 landing pad (RPLP)
# Outline: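 HEK293 landing-pad cells received a recombined binder library fused to the ALFA nanobody and were induced with 2 μg mL^−1 doxycycline, then transfected with a plasmid encoding a FLAG-tagged target and a Myc-tagged standard. Lysates were collected after 48 h for anti-FLAG and anti-Myc immunoprecipitation, and the circular RNA barcodes were reverse transcribed, amplified and sequenced. Target abundance for each binder is the median log2 ratio of FLAG to Myc barcode read proportions. Barcodes had to reach a proportion of at least 10^−7 in both replicates, each binder needed at least 3 barcodes per replicate, a pseudocount of 10^−6 was applied, and the two replicates were pooled.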
row,Binder,median log2 fold change
1,B1,0.0347
2,B2,-0.116
3,B3,0.142
4,B4,-0.105
5,B5,0.0654
6,B6,0.177
7,B7,0.235
8,B8,0.164
9,B9,0.161
10,B10,0.197
11,B11,0.011
12,B12,0.0257
13,B13,0.23
14,B14,-0.0235
15,B15,0.272
16,B16,0.358
17,B17,0.169
18,B18,0.178
19,B19,0.184
20,B20,0.065
21,B21,0.0667
22,B22,-0.185
23,B23,-0.199
24,B24,0.229
25,B25,-0.503
26,B26,-0.371
27,B27,-0.00871
28,B28,0.164
29,B29,-0.196
